Measured values reported in the supplement of paper PMC10126150.
Sequences with one replicate were seen in a single cluster, so their values are uncertain.

Each sequence was assayed on ATP (assay: switch fluorescence ratio, 500 uM ATP over buffer (Cy3 cluster intensity, sum of 5 cycles each) (fold (ratio)); higher = stronger signal-on switching upon ATP binding; sequences stand for … in TCGTCGGCAGCGTCAGATGTGTATAAGAGACAGTTTTTTTTTTTTTTTTTTTTTTTTT…TC). Details: aptamer strand: ATP DNA aptamer (quencher-CACCTGGGGGAGTATTGCGGAGGAAGG + anchor), 100 nM annealed; ATP concentration: 500 uM; one replicate.
In short: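 Switching-strand clusters labelled with Cy3 on a modified Illumina MiSeq flow-cell were annealed to 100 nM quencher-labelled ATP aptamer, imaged in selection buffer, and re-imaged after 15 min with 500 uM ATP at 22 °C. This was done over five cycles with NaOH stripping and re-annealing in between. The fluorescence ratio is summed target-cycle over summed buffer-cycle Cy3 intensity per cluster, averaged per switch-domain sequence, excluding clusters outside 100-1000 RFU.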
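Note: ATP exposure 15 min at 22 °C before imaging.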

Row | Sequence | switch fluorescence ratio
1 | CGTGCTGATG | 0.948
2 | CGTGGAAAT | 1.01
3 | CGTGGAATGA | 1.02
4 | CGTGGAATGT | 1.01
5 | CGTGGAGCAC | 1.15
6 | CGTGGCCTGC | 1.01
7 | CGTGGGCAGG | 1.04
8 | CGTGGGCCT | 1.03
9 | CGTGGGGGA | 1.05
10 | CGTGGTCATG | 0.951
11 | CGTGGTGTAG | 0.997
12 | CGTGTAAATT | 0.978
13 | CGTGTACGCG | 0.979
14 | CGTGTAGCA | 1.02
15 | CGTGTCAGA | 1.09
16 | CGTGTCGTAC | 1.02
17 | CGTGTCTGGG | 0.99
18 | CGTGTGCAGT | 1.05
19 | CGTGTGCTAT | 1.02
20 | CGTGTTGGAA | 0.99
21 | CGTTAAATCA | 1.02
22 | CGTTAAATT | 1.02
23 | CGTTAAGACT | 0.981
24 | CGTTAAGTCT | 1.02
25 | CGTTAATAGG | 1.03
26 | CGTTAATCGG | 1.02

Row | Sequence | switch fluorescence ratio
27 | CGTTAATGTA | 1
28 | CGTTACGGTT | 1.01
29 | CGTTACTACC | 1.27
30 | CGTTACTGTA | 1.25
31 | CGTTACTTAA | 1.01
32 | CGTTAGCCC | 1.01
33 | CGTTAGCGTC | 1.03
34 | CGTTATCAAA | 0.993
35 | CGTTCAAGGT | 1.03
36 | CGTTCACACA | 1.14
37 | CGTTCATCTG | 1.02
38 | CGTTCATGTT | 1.01
39 | CGTTCCAGAA | 1.02
40 | CGTTCGAGTC | 1
41 | CGTTCTGCGG | 1
42 | CGTTCTGGAC | 1.05
43 | CGTTCTGGGT | 0.944
44 | CGTTGAGACG | 0.95
45 | CGTTGCACGG | 1.04
46 | CGTTGCCGTA | 0.992
47 | CGTTGCGCAG | 0.989
48 | CGTTGCTATC | 1.17
49 | CGTTGCTGTT | 0.957
50 | CGTTGGCTGC | 1.03
51 | CGTTGTAGAC | 0.992
52 | CGTTGTCGTC | 1.03

Row | Sequence | switch fluorescence ratio
53 | CGTTGTTAGG | 0.99
54 | CGTTTACCAG | 0.989
55 | CGTTTACCCA | 1.01
56 | CGTTTAGACT | 1.01
57 | CGTTTCAGTA | 1.05
58 | CGTTTCCCAT | 1.01
59 | CGTTTCGGA | 0.978
60 | CGTTTGAAC | 1.01
61 | CGTTTGAT | 0.985
62 | CGTTTTAGCG | 1.02
63 | CGTTTTTTCC | 0.995
64 | CTAAAAAGAT | 1
65 | CTAAAATTAG | 0.998
66 | CTAAAATTGG | 1.01
67 | CTAAATTTTT | 1.03
68 | CTAACCCGCG | 1.11
69 | CTAACCGGAA | 1.57
70 | CTAACCGGCG | 1.1
71 | CTAACCTAT | 0.99
72 | CTAACCTGTT | 1.03
73 | CTAACGCTTC | 2.41
74 | CTAAGAATAC | 1.84
75 | CTAAGAGGGG | 0.976
76 | CTAAGGATGG | 1.01
77 | CTAAGGGCTC | 1
78 | CTAAGTAGTG | 0.971

Row | Sequence | switch fluorescence ratio
79 | CTAAGTTGTT | 0.954
80 | CTAATACATG | 1
81 | CTAATACGG | 0.975
82 | CTAATACTGC | 1.17
83 | CTAATACTTC | 1.24
84 | CTAATCAACG | 1.06
85 | CTAATCAGGG | 1.02
86 | CTAATTAGTT | 1.01
87 | CTAATTGCTT | 0.964
88 | CTAATTTTAC | 0.998
89 | CTACATTGT | 0.963
90 | CTACCCTGGT | 1.11
91 | CTACGACAGG | 1.5
92 | CTACTAGGGG | 1.07
93 | CTACTCAAGC | 2.09
94 | CTACTCTAT | 1.13
95 | CTACTCTTCC | 2.43
96 | CTACTGACGT | 1.31
97 | CTACTGTAAA | 1.14
98 | CTAGAAGATG | 1.01
99 | CTAGAATATG | 0.99
100 | CTAGAATGCT | 1
101 | CTAGAATTCG | 0.993
102 | CTAGACCGAG | 1.01
103 | CTAGAGCCAT | 1.08
104 | CTAGAGCGCA | 1.03

Row | Sequence | switch fluorescence ratio
105 | CTAGAGTCGG | 1.06
106 | CTAGATCGTT | 1.01
107 | CTAGATCTGC | 0.988
108 | CTAGCACTCG | 0.994
109 | CTAGCAGTGT | 0.998
110 | CTAGCATTAT | 1.47
111 | CTAGCGCAT | 1.79
112 | CTAGCGTGAG | 0.975
113 | CTAGCTTTAA | 1.04
114 | CTAGGAAAAA | 1.09
115 | CTAGGAGAGC | 0.911
116 | CTAGGAGTAT | 0.998
117 | CTAGGAGTGC | 0.792
118 | CTAGGATATA | 1
119 | CTAGGATGT | 0.943
120 | CTAGGGAAAT | 1.04
121 | CTAGGGCAGA | 1.04
122 | CTAGGGCCCG | 0.966
123 | CTAGGGTCGG | 0.935
124 | CTAGGGTTTT | 0.998
125 | CTAGGTCAGG | 0.99
126 | CTAGGTCGCC | 1.01
127 | CTAGTAAGTC | 1.53
128 | CTAGTCAGTG | 0.954
129 | CTAGTCGATA | 1.01
130 | CTAGTCTGTA | 1.01

Row | Sequence | switch fluorescence ratio
131 | CTAGTGAAGC | 1
132 | CTAGTGGTCC | 1.02
133 | CTAGTTTTAC | 1.03
134 | CTATAAACTT | 1.03
135 | CTATAACCCG | 1.01
136 | CTATAAGTTC | 0.98
137 | CTATAATGAC | 1.05
138 | CTATACAAGG | 0.969
139 | CTATACACAC | 1.41
140 | CTATACTAGA | 0.964
141 | CTATCAATT | 1.01
142 | CTATCACGAA | 1.03
143 | CTATCCAAAC | 1.21
144 | CTATCGGCTC | 0.976
145 | CTATCTGCTC | 1
146 | CTATGAGAGT | 0.991
147 | CTATGAGAT | 0.954
148 | CTATGGAGGG | 0.992
149 | CTATGGGAGG | 1.04
150 | CTATGGGGTC | 1.02
151 | CTATGGGTAG | 1
152 | CTATGTAGA | 1.04
153 | CTATGTGAAA | 0.934
154 | CTATGTGTCC | 0.999
155 | CTATGTTTGA | 1.02
156 | CTATTACAG | 1.02

Row | Sequence | switch fluorescence ratio
157 | CTATTACGAG | 1.01
158 | CTATTACGT | 0.956
159 | CTATTAGCGA | 1.21
160 | CTATTATAAT | 0.986
161 | CTATTATAGG | 0.995
162 | CTATTCATAT | 1.05
163 | CTATTGAGAC | 1.04
164 | CTATTGATTC | 0.995
165 | CTATTGGGTC | 0.997
166 | CTATTTATGG | 0.972
167 | CTATTTATGT | 0.998
168 | CTCAAACGGC | 1.22
169 | CTCAAACTGT | 0.89
170 | CTCAAAGAGA | 0.967
171 | CTCAAATAGG | 1.01
172 | CTCAACCGCT | 1.38
173 | CTCAATCAT | 0.986
174 | CTCAATCCTT | 1.76
175 | CTCACAACAT | 1.07
176 | CTCACATCGG | 0.958
177 | CTCACCGCCC | 1.9
178 | CTCACCGGCA | 1.06
179 | CTCAGATACT | 1.24
180 | CTCAGATCGC | 1.1
181 | CTCAGGGGCA | 1.04
182 | CTCAGTAT | 0.995

Row | Sequence | switch fluorescence ratio
183 | CTCAGTCGTT | 1.03
184 | CTCAGTCTAG | 1.01
185 | CTCAGTGTTT | 0.981
186 | CTCATATGCG | 1.03
187 | CTCATCAGGA | 1.01
188 | CTCATGACTA | 1.03
189 | CTCATTCAGT | 0.965
190 | CTCATTGACT | 1.08
191 | CTCCAAGTTA | 1.14
192 | CTCCAGAGCA | 2.27
193 | CTCCATGATG | 0.989
194 | CTCCCGGAGT | 1.14
195 | CTCCGCGGAG | 1.3
196 | CTCCGGGAAT | 3.67
197 | CTCCGTGCAG | 1.57
198 | CTCCTAATAG | 4.99
199 | CTCCTAGGAG | 0.978
200 | CTCCTATATT | 1.03
201 | CTCCTCGTAG | 1.28
